The campaign covered roughly 45,000 compounds. About 65 (0.1%) were called active. Calls come from the whole dose curve; as a rule, active = well fitted activation curve with a large enough effect; inconclusive = small, poorly fitted or top-dose-only effect; inactive = no such curve, though single readings can be large or run the other way. The list shows a part of the results.
Target: Galactocerebrosidase (Homo sapiens) (UniProt P54803)
Assay: A Novel Cell-Based Assay to Identify Small Molecules for B -Galactocerebrosidase; note: 0% is about no effect; nearly all actives have a fitted effect of over 65% in size
Conditions: 145M-Twi-hGALC-G270D cells, HMU-beta-Gal fluorescence, 48 h; series mostly up to 57.5 µM; activation: at the top concentration
Procedure, shortened: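 qHTS, 1536-well; 145M-Twi-hGALC-G270D cells (WT line also made) in DMEM/F12 + 10% FBS; compound incubation on live cells; HMU-β-gal 0.1 mM final, pH 5.2, NaTC; carbonate stop; fluorescence increase = enhanced residual activity.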

Chain of UniProt P54803 (P54803 whole entry, looked up): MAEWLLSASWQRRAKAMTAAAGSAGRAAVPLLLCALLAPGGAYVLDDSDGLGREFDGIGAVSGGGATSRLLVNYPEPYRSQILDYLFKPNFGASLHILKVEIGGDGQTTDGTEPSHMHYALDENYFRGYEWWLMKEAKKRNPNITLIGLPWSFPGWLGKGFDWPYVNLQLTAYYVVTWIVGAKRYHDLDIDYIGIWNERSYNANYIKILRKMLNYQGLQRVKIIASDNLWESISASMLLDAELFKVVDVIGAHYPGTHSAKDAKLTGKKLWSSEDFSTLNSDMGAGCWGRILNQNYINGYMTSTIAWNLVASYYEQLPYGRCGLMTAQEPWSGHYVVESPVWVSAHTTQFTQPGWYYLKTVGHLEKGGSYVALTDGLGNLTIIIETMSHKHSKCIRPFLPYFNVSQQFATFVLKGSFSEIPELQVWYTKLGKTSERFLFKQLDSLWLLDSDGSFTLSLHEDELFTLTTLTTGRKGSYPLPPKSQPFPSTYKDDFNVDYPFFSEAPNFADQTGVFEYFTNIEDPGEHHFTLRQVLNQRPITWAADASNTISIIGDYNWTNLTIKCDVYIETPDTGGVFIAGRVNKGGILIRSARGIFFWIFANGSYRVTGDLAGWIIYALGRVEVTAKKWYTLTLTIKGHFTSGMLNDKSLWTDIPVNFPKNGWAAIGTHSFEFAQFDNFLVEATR

activation, inactive:
Cc1cccc(C)c1OCC(=O)Nc1nc(-c2ccc(Br)cc2)ns1 -14.5%, Cc1cc(C)c(Cn2c3ccccc3c3cnn(CC(=O)N4CCCCCC4)c(=O)c32)c(C)c1 -10.3%, Cc1cccc(-n2c(-c3ccccc3)cn3c4c(=O)[nH]c(=O)n(C)c4nc23)c1 -9.61%, Cn1cc(S(=O)(=O)c2ccccc2)c(=O)c2cc(F)c(N3CCN(c4ccccc4)CC3)cc21 -9.14%, Cc1ccc(-c2cc(C(F)(F)F)n3nc(C(=O)Nc4ccc(Cl)c(C(F)(F)F)c4)cc3n2)cc1 -14.2%, CCN(CC)CCCNC(=O)C1CCN(S(=O)(=O)CC)CC1 -20.5%, CC(=O)c1ccc(NC(=O)c2c3c(nc4ccccc24)C(=O)N(C2CCCCC2)C3)cc1 -12.3%, O=S1(=O)c2ccccc2N(Cc2ccccc2)c2ccccc21 -23.1%, COC(=O)c1cc(C)nc2c1c(=O)nc(SCc1ccccc1F)n2C1CC1 -11%, CCOc1ccc(C(=O)Nc2c(C(=O)Nc3ccccc3F)oc3ccccc23)cc1OCC -0.919%, O=C(Cn1c(=O)n(-c2cccc(Cl)c2)c(=O)c2sc3ccccc3c21)N1CCCC1 -1.6%, COc1ccc(OCCn2cc(C(=O)C3CCCCC3)c3ccccc32)cc1 -11.5%, O=C(Nc1cccc(Br)c1)N1CCC(CN2CCCCC2)CC1 -14.9%, Cc1ccc(NC(=O)CSc2nc3ncccc3[nH]2)cc1F -24%, COc1cccc(N2CCN(C(=O)c3cnn(C(C)(C)C)c3C3CCN(C(=O)OC(C)(C)C)CC3)CC2)c1 -16.5%, O=C(c1ccc2c(c1)CCN2S(=O)(=O)c1ccccc1)N1CCN(c2ccc(F)cc2)CC1 -4.81%, Cc1ccc(S(=O)(=O)Cc2nc(-c3ccc(C(=O)NCc4ccccc4)cc3)oc2C)cc1 -14.8%, CCc1cccc(NC(=O)Cn2c(=O)n(Cc3ccccc3)c(=O)c3c2c2cc(OC)ccc2n3C)c1 -8.47%, O=C(NCc1ccc(Cl)cc1)C(=O)Nc1ccc(Br)cc1 -10.4%, COc1ccc(NC(=O)/C(C#N)=C/c2ccc(OCc3cc(=O)n4nc(C)sc4n3)cc2)cc1 4.2%, CC1CCN(C(=O)CSc2nnc(-c3ccccc3Cl)o2)CC1 -15.7%, O=S(=O)(Nc1ccc2oc3c(c2c1)CCCC3)c1cc(Cl)ccc1Cl -6.02%, CCN(C(=O)Cn1nc(Cc2cccnc2)c2ccccc2c1=O)c1ccccc1F -5.33%, CCc1ccccc1NC(=O)Cn1c(-c2nonc2N)nc2ccccc21 -7.64%, O=C(NCCc1csc(-c2ccc(Cl)cc2)n1)c1cccs1 -12.2%, COC(=O)c1c(NC(=O)CCCOc2ccc(C(C)(C)C)cc2)sc2c1CCC(C)C2 (stereo not drawn) -12.5%, Cc1ccc2nc(-c3cc(NC(=O)c4ccc5c(c4)OCCO5)ccc3Cl)oc2c1 -11%, COc1ccc(C2Sc3ccccc3NC3=C2C(=O)c2ccccc23)c(OC)c1OC (stereo not drawn) -16.7%, COc1ccc(NC(=O)CCNS(=O)(=O)c2cccc3nsnc23)cc1 -12.6%, COc1ccc(-c2onc(C)c2C)cc1S(=O)(=O)N1c2ccccc2CC1C (stereo not drawn) -8.21%, Cc1ccc(S(=O)(=O)NCCc2cn3c(C)csc3n2)cc1 -12.5%, Cc1cccc(NC(=O)C2CCN(c3nnc(-n4c(C)ccc4C)s3)CC2)c1C 0.61%, COc1ccc(Cl)cc1NC(=O)CCS(=O)(=O)c1nc(-c2cccs2)cc(C(F)(F)F)n1 -21.6%, CCOC(=O)c1ccc(NC(=O)Nc2c[nH]c(=O)[nH]c2=O)cc1 0.864%, CCOC(=O)c1cc(-c2ccccc2)n(CC(=O)NC(C)c2ccccc2)c1C (stereo not drawn) -4.43%, Cc1ccc(CNC(=O)c2cc3c(s2)-c2ccccc2SC3)cc1 -29.3%, CC(C)CN(CCCNC(=O)Cn1ncc2c3ccccc3n(C)c2c1=O)CC(C)C -1.44%, O=C(NC1(C(F)(F)F)C(=O)Nc2c1c(=O)[nH]c(=O)n2CCc1ccccc1)c1ccc(Cl)cc1Cl (stereo not drawn) -8.15%, COc1ccccc1-c1cc2nc(C)c(CCC(=O)Nc3ccc(Br)c(C)c3)c(C)n2n1 -39.6%, CCn1cc(C(=O)N2CCN(c3cccc(C(F)(F)F)c3)CC2)c2cc(OC)c(OC)cc2c1=O -7.36%, Cc1cc(C)cc(NC(=O)CCS(=O)(=O)c2cc3c4c(c2)CCN4C(=O)CC3)c1 -19.8%, CC(C)COc1ccc(C(=O)Nc2cccc(-c3nc4ccccc4[nH]3)c2)cc1 -36.9%, CCc1ccc(OC(C)C(=O)N2CCC(c3nc4ccccc4s3)CC2)cc1 (stereo not drawn) -12%, O=C(CSc1nnc(-c2ccccc2)c(-c2ccccc2)n1)NC1CCCCC1 -1.14%, CCOc1ccc(-c2nonc2NC(=O)c2oc3ccc(Br)cc3c2C)cc1 -16%, Cc1nc(N2C(=O)c3oc4ccccc4c(=O)c3C2c2cccc(OCCC(C)C)c2)sc1C (stereo not drawn) -4.33%, CCOC(=O)N1CCc2c(sc(NCc3cccc(F)c3)c2C(=O)Nc2ccccc2OCC)C1 -5.21%, Cc1ccc(N2CC(NC(=O)Cc3cccs3)CC2=O)cc1C (stereo not drawn) 0.199%, CCOc1ccccc1NC(=O)C1CCCN(S(=O)(=O)c2c(C)[nH]c(=O)[nH]c2=O)C1 (stereo not drawn) -3.24%, CCOc1ccc(/C=C(\C#N)c2nc3ccccc3c(=O)[nH]2)cc1OC 0.919%, COC(=O)c1nnn(CC(=O)NC(=O)Nc2cccc(C)c2C)c1C(=O)OC -13.9%, CCc1nc2ccc(C(=O)N3CCN(c4ccccc4)CC3)cc2nc1CC -17.1%, O=C(O)c1cn(-c2ccc(F)cc2)c2cc(N3CCNCC3)c(F)cc2c1=O -8.04% [at 23.8 µM], CCOc1cc(-c2nnc(SCC(=O)Nc3ccc(F)c(F)c3)nc2-c2ccc(OC)c(OCC)c2)ccc1OC -8.13%, CCC(=O)Nc1nnc(SCc2cc(=O)c3cc(C)ccc3[nH]2)s1 0.483%, CC(=O)N1CCc2c(sc3c2c(=O)n(-c2ccccc2)c(=O)n3CC(=O)Nc2cccc(C)c2)C1 -13.2%, CCOc1ccc(CNS(=O)(=O)c2c(C(=O)N3CCC(C)CC3)c(C)n(C)c2C)cc1OC 3.55%, Cc1c(C(=O)OC2CCCC2)[nH]c2c1C(=O)CC(c1ccc(Cl)cc1)C2 (stereo not drawn) -22.2%, COc1ccccc1CNC(=O)CCC1N=C2c3ccccc3N=C(SCc3cccc(Cl)c3)N2C1=O (stereo not drawn) -14.3%, CC(C)N(C(=O)CSc1nc2ccc(Cl)cc2[nH]1)c1ccccc1 -14.4%, COc1ccccc1CNC(=O)CCCc1nnc2n(CC(C)C)c(=O)c3sccc3n12 -3%, COc1ccc(-c2cc3nc(-c4ccc(C)cc4)cc(C(F)(F)F)n3n2)cc1 -6.87%, CCOc1ccc(OCC)c(NS(=O)(=O)c2cc(Br)cc3c2N(C(C)=O)C(C)C3)c1 (stereo not drawn) -38.4%, O=C(c1ccc(F)cc1)N1c2nc(-c3ccco3)nn2C2(CCCCC2)[C@@H]2CCCC[C@@H]21 -9.25%, Cc1c(Cl)cccc1NC(=O)Cn1c(CCC(=O)O)ccc1-c1cccs1 -7.36%, CCOC(=O)c1c(NC(C)=O)c2c3c(sc2n1Cc1nc(-c2cccc(Cl)c2)oc1C)CCCC3 -8.3%, CCOc1ccc(-c2cccc(NS(=O)(=O)c3c(C)cc(C)cc3C)c2)nn1 -12.6%, COc1ccccc1CCNC(=O)C(=O)NCC(c1ccc2c(c1)OCO2)N1CCOCC1 (stereo not drawn) -16.3%, CC(=O)c1cccc(NC(=O)c2sc(-n3nc(C)c(Cc4ccc5c(c4)OCO5)c3C)nc2C)c1 19.1%, Cc1ccc2oc3c(c(=O)c2c1)C(c1ccc(F)cc1)N(Cc1ccc2c(c1)OCO2)C3=O (stereo not drawn) -18.4%, COc1cccc(CNC(=O)C(=O)Nc2c3c(nn2-c2ccccc2)CSC3)c1 -5.5%, CCN(C(=O)C1CCN(S(=O)(=O)c2ccc3c(c2)CCCN3C(C)=O)CC1)c1cccc(C)c1 -15%, COc1ccccc1OCC(=O)NCC(c1ccc(Cl)cc1)N1CCCCC1 (stereo not drawn) -11.6%, CCOc1cc(C(=O)NCCc2csc3nc(-c4ccc(C)cc4)nn23)cc(OCC)c1OCC -22.2%, COC(=O)c1ccccc1NC(=O)CSc1nc2ccsc2c(=O)n1CCC(C)C -11.2%, COc1ccc(OC)c(-c2nnc3n(Cc4ccc(C)cc4)c(=O)c4ccccc4n23)c1 -8.42%, Cc1c(-c2ccc(Br)cc2)c(=O)oc2ccc(OC(=O)N3CCOCC3)cc12 -2.11%, CCN(CC)C(=O)CSc1nc(-c2ccccc2F)nc2c1Cc1c(CO)cnc(C)c1O2 -10.8%, CC(C)(C)OC(=O)N1CCC(c2c(C(=O)N3CCCCC3)cnn2-c2ccc(Cl)cc2)CC1 -12.9%, Cc1cccc(Cn2c(CNS(=O)(=O)c3ccc4c(c3)CCCC4)nc3cccnc32)c1 -5.58%, C[C@@H]1C[C@H]2[C@@H]3C[C@H](F)C4=CC(=O)C=C[C@]4(C)[C@@]3(F)[C@@H](O)C[C@]2(C)[C@@]1(O)C(=O)CO -10.9%, Cc1c(Cl)cccc1-c1ccc(C(=O)Nc2ccc(F)cc2)o1 -8.11%, COc1ccc(Cc2nc3ccccc3[nH]c2=O)cc1 1.69%, C=Cc1ccc(Cn2c(C)c(CNCc3cccc(Br)c3)c(C(=O)O)c2C)cc1 -10.4%, COc1ccc(F)cc1S(=O)(=O)NCCc1csc2nc(-c3cccc(C)c3)nn12 -17.2%, CCOC(=O)c1c(S(=O)(=O)N2CCCC(C(=O)NCc3ccc(Cl)cc3)C2)c(C)n(C)c1C (stereo not drawn) -15.2%, COC(=O)c1ccc(OCC2c3cc(OC)c(OC)cc3CCN2C(=O)COc2ccc(Cl)cc2)cc1 (stereo not drawn) -23%, O=C(c1ccccc1Cl)N1c2ncnn2C2(CCCCC2)[C@@H]2CCCC[C@@H]21 -1.45%, CCOC(=O)C1CCCN(C(=O)c2nn(-c3ccc(OC)cc3)c(=O)c3c2c2ccccc2n3C)C1 (stereo not drawn) -9.94%, Nc1nc(Nc2ccccc2F)sc1C(=O)c1ccc(Cl)cc1 -15.9%, CCc1cccc(NC(=O)C2CCN(C(=O)c3cnn(-c4ccccc4)c3-n3cccc3)CC2)c1 -3.68%, CCOC(=O)c1noc2ncn(CC(=O)Nc3ccc(C)c(F)c3)c(=O)c12 -5.2%, Cc1cccc(NC(=O)CCS(=O)(=O)c2ccc3c(c2)n(C)c(=O)c(=O)n3C)c1C 1.58%
